Experimental data taken from PubChem BioAssay AID504832 (National Center for Advancing Translational Sciences (NCATS), 2011).
Out of some 310,000 compounds screened, about 18,000 (5.8%) were called active. This list was built around the results that the source calls inconclusive (neither active nor inactive); the mix of calls is not that of the screen. Calls follow the shape of the dose curve; as a rule, active = well fitted inhibition curve with a large enough effect; inconclusive = small, poorly fitted or top-dose-only effect, or another doubt; inactive = no such curve, though single readings can be large or run the other way. No potency is given beside an inconclusive call; the fits are too rough.

Test: Primary qHTS for delayed death inhibitors of the malarial parasite plastid, 48 hour incubation
Details: P. falciparum luciferase growth in erythrocytes; series mostly up to 28.7 µM; activity change, negative = inhibition: at the top concentration
Procedure, shortened: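 A one-generation exposure of luciferase-tagged malaria parasites in RPMI 1640/Albumax erythrocyte culture, 37 C and 5% CO2. Inhibition is inferred from decreased luminescence after adding detection reagent.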
% is scaled to controls: 0 for no effect and ±100 for the full control effect; potency is read from the fitted curve at half-maximal effect; tags tell the direction and shape of the fitted curve.

Compound	Potency	activity change, negative = inhibition
COc1ccc(C2(C)NC(=O)N(CC(=O)Nc3ccc(C)cc3Br)C2=O)cc1OC (stereo not given)	inconclusive [inhibitor, full curve]	
O=C(CCNC(=O)c1ccc(Br)cc1)NC1CCCc2ccccc21 (stereo not given)	inconclusive [inhibitor, single point]	
O=c1cc(-c2ccc(F)cc2F)[nH]c2ccccc12		inactive: 10.7%
COc1ccc([C@@H]2CC=C(C(=O)O)[C@H](c3cccc(Cl)c3)N2S(=O)(=O)c2ccc(Cl)cc2)cc1	inconclusive [inhibitor, single point]	
CCN(CCCNC(=O)c1cn(CC)c2ccc(S(=O)(=O)N(C)C)cc2c1=O)c1cccc(C)c1	inconclusive [inhibitor, partial curve, poor fit]	
COc1ccc(-c2c3c(=O)n(C)c(=O)n(C)c3cn2-c2ccccc2)cc1	inconclusive [inhibitor, single point]	
CCN1CCc2c(sc(NC(=O)Nc3ccc(Cl)c(Cl)c3)c2C(N)=O)C1	active: 11.7 µM	
Cc1ccc(-c2nc(S(=O)(=O)c3ccccc3)c(SCC(=O)NCC3CCCO3)o2)cc1 (stereo not given)	inconclusive [inhibitor, partial curve, poor fit]	
CCCc1cc(=S)n2c([nH]c3ccccc32)c1C#N	inconclusive [inhibitor, partial curve, poor fit]	
Cc1cc(NC(=O)c2cc([N+](=O)[O-])cc([N+](=O)[O-])c2)no1	inconclusive [inhibitor, partial curve, poor fit]	
CCCC1CCC(C(=O)Nn2cnc3ccccc3c2=O)CC1 (stereo not given)		inactive: -18%
NC(=O)[C@H]1CC2(CC(c3cccc(NC(=O)COc4ccc(Cl)cc4)c3)=NO2)CN1C(=O)[C@H]1CCC(=O)N1 (stereo not given in full)	inconclusive [inhibitor, single point]	
COc1ccc(C(=O)OCC(=O)NCc2ccco2)cc1OC		inactive: -5.54%
COc1ccccc1CCc1nnc(CCC(=O)NC(C)Cc2ccsc2)o1 (stereo not given)	inconclusive [inhibitor, partial curve, poor fit]	
Fc1ccc(N2CCN(Cc3c[nH]c4ccccc34)CC2)cc1	inconclusive [inhibitor, single point]	
CC(=O)c1cccc(CN2CCC(C(=O)Nc3ccc(-c4cccc(C)c4)cc3)CC2)c1	active: 4.15 µM	
Cn1cc2c([N+](=O)[O-])cc([N+](=O)[O-])cc2n1	inconclusive [inhibitor, single point]	
CS/C(=C/[N+](=O)[O-])Nc1cccc2c1C(C)CC2(C)C (stereo not given)	inconclusive [inhibitor, single point]	
NCCSc1c(-c2ccccc2)[nH]c2ccccc12	inconclusive [inhibitor, single point]	
Brc1ccc2nc3c(n2c1)CCCC3		inactive: -4.77%
O=C(Nc1ccccc1)N1C2CCC1CC(O)(c1cccnc1)C2 (stereo not given)	inconclusive [inhibitor, single point]	
Cn1cnc2c(NCc3ccco3)ncnc21	inconclusive [inhibitor, partial curve, poor fit]	
Cc1ccc(NC(=O)c2c(C(=O)Nc3ccccc3)sc3nc(C)cc(=O)n23)cc1	inconclusive [inhibitor, partial curve, poor fit]	

Compound	Potency	activity change, negative = inhibition
COc1ccccc1N1CCN(C(=O)c2c(-c3c(F)cccc3Cl)noc2C)CC1	inconclusive [inhibitor, single point]	
CC(C)(C)C1CCC(OC(=O)CN2CCCCC2)CC1 (stereo not given)		inactive: 68.3%
COC(=O)CCCC1=CC2=CC(=O)C(C)(OC(=O)c3cccs3)C(=O)C2=CN1c1ccc(OC)cc1 (stereo not given)	active: 6.57 µM	
Cc1c(NC(=O)C(C)Sc2nccn2C)c(=O)n(-c2ccccc2)n1C (stereo not given)	inconclusive [inhibitor, single point]	
Cc1ccccc1OCC(=O)Nc1ccc(N2CCN(C(=O)c3ccco3)CC2)cc1	inconclusive [inhibitor, partial curve, poor fit]	
Cc1c(Cl)cccc1NC(=O)Cn1nc(C)n2cccc2c1=O		inactive: -0.311%
CC(OC(=O)c1ccc(-n2cnnn2)cc1)C(=O)Nc1ccccc1F (stereo not given)	inconclusive [inhibitor, single point]	
Cc1cc2c(cc1[N+](=O)[O-])NC(CNC(C)C)CC2 (stereo not given)	inconclusive [inhibitor, single point]	
Clc1ccc(CNC2CCN(Cc3ccccc3)CC2)cc1	active: 4.15 µM	
COc1ccc(C(=O)Oc2ccc(/C=N/NC(=O)c3ccccc3OC)cc2[N+](=O)[O-])cc1		inactive: 10.5%
CSC1=N/C(=C\c2ccccc2Cl)C(=O)N1N(C)C		inactive: -20.4%
O=C(Cc1c[nH]c2ccccc12)Nc1ccccc1N1CCOCC1	inconclusive [inhibitor, partial curve]	
Cc1csc(C(=O)O)c1-n1cccc1		inactive: 0.587%
CCCCOc1ccc(C(=O)Nc2cccc(-n3cnnn3)c2)cc1OC	inconclusive [inhibitor, partial curve]	
COc1ccc2c(c1)C1(Nc3ccccc3-c3nc4ccccc4n31)C(=O)N2 (stereo not given)	active: 0.415 µM	
Cc1c(OCC(=O)C(C)(C)C)ccc2c3c(c(=O)oc12)CCCC3	inconclusive [inhibitor, partial curve]	
O=C(CCl)Nc1cc(S(=O)(=O)N2CCOCC2)ccc1N1CCOCC1		inactive: -5.42%
COC(=O)C1CSc2[nH]c(=O)sc2C1c1ccc(OC)c(OC)c1 (stereo not given)	active: 10.4 µM	
CC(C(=O)Nc1ccccc1)N(C)Cc1cccs1 (stereo not given)		inactive: 3.34%
Cc1ccc(S(=O)(=O)Nc2ccc3nc(-c4cccn4C)[nH]c3c2)cc1	inconclusive [inhibitor, single point]	
COc1ccc(OC(C)C(=O)NCCC2=CCCCC2)cc1 (stereo not given)	inconclusive [inhibitor, single point]	
O=c1c2ccccc2c(C=NCc2ccccn2)c(O)n1-c1ccccc1Cl	inconclusive [inhibitor, single point]	
